PubChem BioAssay AID485313 (National Center for Advancing Translational Sciences (NCATS), 2010)
Screen size: about 320,000 compounds; about 7,600 (2.4%) were called active. The inconclusive results got no clear call from the source; some entries with a clear call stand among them for comparison. Calls come from the whole dose curve; as a rule, active = well fitted activation curve with a large enough effect; inconclusive = small, poorly fitted or top-dose-only effect; inactive = no such curve, though single readings can be large or run the other way. No potency is given beside an inconclusive call; the fits are too rough.

Assay: qHTS Assay for NPC1 Promoter Activators; note: nearly all actives have a fitted effect of over 60% in size;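 for activation: reporter is driven by a mutant NPC1 promoter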
Settings: Huh7 NPC1 promoter luciferase reporter, 24 h; series mostly up to 9.22 µM
Method in brief: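 Compounds in DMSO were transferred onto Huh7 NPC1-luciferase reporter cells pre-incubated 2 h; after 24 h at 37 °C, Amplite reagent was dispensed and luminescence recorded 10 min later.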
Potency is the fitted concentration of half-maximal effect; tags give direction and shape of the fitted curve.

| Structure (SMILES) | Potency |
| --- | --- |
| Cc1cccc(OCCNS(=O)(=O)c2ccc(Cl)cc2)c1 | inactive |
| C/C(=N\N=C\c1ccc(N(C)C)cc1)c1cccc([N+](=O)[O-])c1 | active: 3.55 µM |
| CCN(CC)C(=O)c1cc2c(=O)n3cccc(C)c3nc2s1 | inactive |
| COC(=O)c1sc(NC(=S)NC(=O)c2ccccc2F)nc1C | inconclusive [activator, single point] |
| CCC(=O)Nc1cccc(NC(=S)NC(=O)c2cccs2)c1 | inconclusive [activator, partial curve] |
| C/C(=N\NC(=O)c1cccc(S(=O)(=O)N2CCCC2)c1)c1ccccc1F | inconclusive [activator, partial curve] |
| COc1ccc(NC(=O)c2cc3ccccc3cc2OC)cc1 | inconclusive [activator, single point] |
| O=C(N/N=C/c1ccccc1O)NC12CC3CC(CC(C3)C1)C2 | inconclusive [activator, partial curve] |
| Clc1cccc(/C=N/Nc2nnc(Cl)c3ccccc23)c1 | inconclusive [activator, partial curve] |
| COc1ccc(C(=O)NCCCCCCNC(=O)c2ccc(OC)cc2)cc1 | inconclusive [activator, single point] |
| Nc1nn(-c2ccccc2)c(N)c1N=Nc1ccccc1F | active: 0.562 µM |
| O=C(O)/C=C/C(=O)c1ccc(O)cc1 | inactive |
| CCS(=O)(=O)N1Cc2ccccc2CC1C(=O)Nc1cccc(C)c1 (stereo unspecified) | inconclusive [activator, single point] |
| O=C1/C(=C/c2cccnc2)Sc2ccccc21 | inactive |
| O=C(Nc1nnc(-c2ccco2)s1)C1CC1 | inconclusive [activator, partial curve] |
| CN1/C(=C\C=C2/C(=O)Oc3ccccc3C2=O)C(C)(C)c2ccccc21 | inconclusive [activator, single point] |
| CCOc1ccc(-c2ccc(SCC(=O)N3CCOCC3)nn2)cc1 | inconclusive [activator, partial curve] |
| O=C1/C(=C/Nc2cccc([N+](=O)[O-])c2)CCc2ccccc21 | active: 2.82 µM |
| Cc1cc(C(=O)CSc2ccc3c(c2)OCCO3)c(C)n1C1CC1 | inconclusive [activator, partial curve] |
| COc1ccc(NC(=O)C(C)NS(=O)(=O)c2ccccc2)cc1Cl (stereo unspecified) | inactive |
| CCc1nc2oc3ccc(C)cc3c(=O)c2cc1C(=O)OC | active: 3.55 µM |
| CCOc1ccc(N2C(=O)CC(N3CCN(c4ccc(F)cc4)CC3)C2=O)cc1 (stereo unspecified) | inconclusive [activator, single point] |
| NS(=O)(=O)c1ccc(N=Nc2c(O)ccc3ccccc23)cc1 | inactive |
| NC(=O)c1ccc(-c2noc(-c3ccccc3F)n2)cc1 | active: 0.316 µM |
| Cn1cnnc1SCC(=O)c1ccco1 | inactive |
| Cc1ccc(C)c(CNC(=O)Nc2ccccc2)c1 | inconclusive [activator, partial curve] |

| Structure (SMILES) | Potency |
| --- | --- |
| S=C(N/N=C/c1ccc(Br)cc1)N1CCCCC1 | active: 3.98 µM |
| CCCCOC(=O)c1ccc(OC(=O)c2cccnc2)cc1 | inactive |
| O=C1c2ccccc2C(=O)C1c1ccc2ccccc2n1 | inconclusive [activator, single point] |
| CC(=O)c1c(C)[nH]c(C(=O)OCc2ccccc2F)c1C | inconclusive [activator, single point] |
| COc1ccc(N=Cc2sc(O)c3ccccc23)cc1 | inconclusive [activator, single point] |
| COc1ccc(N2CCN(c3cnc4ccccc4n3)CC2)cc1 | inconclusive [activator, partial curve] |
| NC(N)=NC(=O)c1nc(Cl)c(N2CCCCCC2)nc1N | inconclusive [activator, partial curve] |
| CC(C)CC(=O)Nc1ccc2c(c1)oc1ccccc12 | active: 1 µM |
| COc1ccc(-c2oc3ccccc3c2C(=O)OCc2ccccc2)cc1 | inconclusive [activator, single point] |
| Cc1nc2sccn2c(=O)c1CCN1CCC(=C(c2ccccc2)c2ccc(F)cc2)CC1 | inactive |
| Cc1nn2c(-c3ccccc3)ccnc2c1-c1ccccc1 | inconclusive [activator, partial curve] |
| Cc1ccc(C(=O)Nc2cccnc2Cl)cc1Cl | inconclusive [activator, single point] |
| CC(C)(C)C1CCC(=O)N(CCOc2ccccc2)CC1 (stereo unspecified) | inconclusive [activator, single point] |
| Cc1ccc(S(=O)(=O)CC(=O)N2CCN(c3ccc(F)cc3)CC2)cc1 | inactive |
| CC(C)(C)C(=O)COc1ccccc1[N+](=O)[O-] | inactive |
| O=C(Nc1nnc(C2CCCCC2)s1)c1cccs1 | active: 2.24 µM |
| Cc1nn(-c2ccccc2)c(Cl)c1/C=N/NC(=O)c1ccccc1F | inconclusive [activator, single point] |
| CN1CCN(c2ccc(NC(=O)c3ccccc3Br)cc2)CC1 | inconclusive [activator, single point] |
| COc1cccc(OCc2cc(C(=O)N(C)CCC3CCCCO3)no2)c1 (stereo unspecified) | inconclusive [activator, single point] |
| Cc1ccc(C(=O)NNC(=O)c2ccc3c(c2)OCCO3)cc1 | inconclusive [activator, partial curve] |
| CC(=C/c1ccccc1)/C=N/NC(=O)c1cc(C)oc1C | inconclusive [activator, partial curve] |
| CCOC(=O)Cn1nnc(-c2cccc(OC)c2)n1 | inactive |
| COc1ccc(-c2oc3ccccc3c(=O)c2OC(C)=O)cc1 | inconclusive [activator, single point] |
| CCc1sc(C(=O)Nc2nc(C)cs2)cc1C | active: 1.26 µM |
| CCCCN(C(=O)NC(=O)Nc1nc2ccc(OC)cc2s1)S(C)(=O)=O | inconclusive [activator, partial curve] |
